Assay results as given in PMC4336329 (PLoS ONE, 2015).
Hit rate of the full screen: of about 310,000 compounds, about 14,000 (4.5%) showed an effect of 50% or more. The effect is printed as a negative number. The list shows a part of the results.
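Also: peak tail current of the secondary pulse compared with the same well before compound.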

Each compound was assayed against human ether-à-go-go-related gene (hERG) potassium channel (human, UniProt Q12809) (assay: primary screen, population patch clamp on CHO cells stably expressing hERG).
human ether-à-go-go-related gene (hERG) potassium channel, sequence (Q12809 whole entry, looked up): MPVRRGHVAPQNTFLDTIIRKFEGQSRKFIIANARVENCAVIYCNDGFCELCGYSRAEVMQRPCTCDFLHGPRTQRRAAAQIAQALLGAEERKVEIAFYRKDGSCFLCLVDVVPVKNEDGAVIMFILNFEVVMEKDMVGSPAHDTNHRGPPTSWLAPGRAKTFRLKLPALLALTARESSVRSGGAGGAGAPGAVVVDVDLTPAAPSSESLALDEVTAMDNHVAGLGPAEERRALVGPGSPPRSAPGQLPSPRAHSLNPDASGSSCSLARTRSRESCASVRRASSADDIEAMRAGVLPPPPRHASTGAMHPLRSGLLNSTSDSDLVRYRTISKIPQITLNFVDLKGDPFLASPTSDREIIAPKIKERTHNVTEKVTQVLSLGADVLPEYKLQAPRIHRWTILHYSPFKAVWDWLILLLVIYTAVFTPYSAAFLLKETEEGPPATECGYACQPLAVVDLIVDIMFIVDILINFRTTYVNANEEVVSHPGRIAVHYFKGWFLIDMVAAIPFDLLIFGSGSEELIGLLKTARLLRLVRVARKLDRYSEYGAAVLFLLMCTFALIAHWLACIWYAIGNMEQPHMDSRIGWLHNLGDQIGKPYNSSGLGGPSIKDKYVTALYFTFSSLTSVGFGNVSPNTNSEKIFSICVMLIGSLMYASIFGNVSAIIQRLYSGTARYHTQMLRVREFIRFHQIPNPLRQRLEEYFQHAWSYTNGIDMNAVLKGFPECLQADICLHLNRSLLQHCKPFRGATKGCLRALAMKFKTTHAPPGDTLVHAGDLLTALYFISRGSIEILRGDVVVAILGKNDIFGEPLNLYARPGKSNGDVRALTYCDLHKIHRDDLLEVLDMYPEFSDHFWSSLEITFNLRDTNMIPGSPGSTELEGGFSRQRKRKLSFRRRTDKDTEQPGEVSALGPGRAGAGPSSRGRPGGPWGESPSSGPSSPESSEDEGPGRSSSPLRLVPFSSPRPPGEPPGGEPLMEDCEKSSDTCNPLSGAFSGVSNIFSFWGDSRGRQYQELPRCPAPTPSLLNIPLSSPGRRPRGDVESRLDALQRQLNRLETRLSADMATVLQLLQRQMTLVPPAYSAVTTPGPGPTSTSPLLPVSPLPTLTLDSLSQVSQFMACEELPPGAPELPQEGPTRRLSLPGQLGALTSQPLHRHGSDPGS
With `CCOc1ccc(N2C(=O)C3ON(C)C(c4ccc([N+](=O)[O-])cc4)C3C2=O)cc1` (stereo not shown) the “hERG current change (%, negative = inhibition) at 10uM” value was 20.7%. `Nc1cc(=O)[nH]c(SCC(=O)Nc2ccc3c(c2)CCC3)n1` was tested, and the “hERG current change (%, negative = inhibition) at 10uM” value was 21%. In the case of `COc1ccc([N+](=O)[O-])cc1NC(=O)CCN1CCN(c2ccccc2OC)CC1`, the “hERG current change (%, negative = inhibition) at 10uM” value was -5.64%. `O=C(c1cnccn1)N1CCN(C/C=C/c2ccccc2)CC1` was tested, and the “hERG current change (%, negative = inhibition) at 10uM” value was -16.6%. With `CCOC(=O)c1sc2nc(C)nc(NCc3ccc(F)cc3)c2c1C` the “hERG current change (%, negative = inhibition) at 10uM” value was 17.2%. For `Cn1c(=O)oc2cc(S(=O)(=O)NC3CCCc4ccccc43)ccc21` (stereo not shown), the “hERG current change (%, negative = inhibition) at 10uM” value was -9.82%. `COc1ccccc1NC(=O)NNC(=O)CN1C(=O)COc2ccccc21` was tested, and the “hERG current change (%, negative = inhibition) at 10uM” value was 22.7%. `CCOc1ccc(C(=O)NCC(=O)OCC(=O)N2CCCC2)cc1` was tested, and the “hERG current change (%, negative = inhibition) at 10uM” value was 9.6%. For `Cc1cccc(CN2CCc3c([nH]c4ccccc34)C2CC(C)C)n1` (stereo not shown), the “hERG current change (%, negative = inhibition) at 10uM” value was -3.98%. For `CC1CCN(CC(=O)Nc2cccc([N+](=O)[O-])c2)CC1`, the “hERG current change (%, negative = inhibition) at 10uM” value was 3.53%. `Cc1ccc(Cl)cc1NC(=S)NCc1cccn1C` was tested, and the “hERG current change (%, negative = inhibition) at 10uM” value was 4.23%. With `N#Cc1cc2c(nc1SCc1ccc(Cl)nc1)CCCCC2` the “hERG current change (%, negative = inhibition) at 10uM” value was 0.646%. For `NC(=O)CCS(=O)(=O)CCN1CCN(S(=O)(=O)c2ccc3c(c2)CCC3)CC1`, the “hERG current change (%, negative = inhibition) at 10uM” value was 11.2%. In the case of `N/C(=N\OC(=O)Nc1ccccc1)c1ccno1`, the “hERG current change (%, negative = inhibition) at 10uM” value was 5.64%. In the case of `C=C(C)CNC(=S)N/N=C(\C)c1ccc(Cl)s1`, the “hERG current change (%, negative = inhibition) at 10uM” value was 9.74%. For `N/C(=N/OC(=O)c1ccc(Cl)cc1)c1ncc([N+](=O)[O-])s1`, the “hERG current change (%, negative = inhibition) at 10uM” value was 15.7%. In the case of `CC1Cc2ccccc2N1C(=O)CSc1nnc(NC(=O)Cc2cccs2)s1` (stereo not shown), the “hERG current change (%, negative = inhibition) at 10uM” value was -4.25%. With `CCc1ccc(CN2CCCC(CCC(=O)N3CCN(c4ccccn4)CC3)C2)o1` (stereo not shown) the “hERG current change (%, negative = inhibition) at 10uM” value was -58.7%. `Nc1cc(Cl)ccc1C(=O)OCC(=O)NC1CCCCCCC1` was tested, and the “hERG current change (%, negative = inhibition) at 10uM” value was 2.69%. `CC1CC1C(=O)OCC(=O)NC(=O)NCc1ccco1` (stereo not shown) was tested, and the “hERG current change (%, negative = inhibition) at 10uM” value was -0.222%. `Cc1csc(=O)n1CC(=O)OCC(=O)Nc1ccc(Cl)cc1F` was tested, and the “hERG current change (%, negative = inhibition) at 10uM” value was 4.07%. For `CCc1cc(=O)oc2cc(OCC(=O)NCCCn3ccnc3)ccc12`, the “hERG current change (%, negative = inhibition) at 10uM” value was -2.06%. `O=C(NCc1cccnc1)C1CCN(C(=O)c2ccc(Cl)cc2Cl)CC1` was tested, and the “hERG current change (%, negative = inhibition) at 10uM” value was -10.8%. `Cc1ccccc1C(=O)Nc1cccc(NC(=O)c2cccnc2)c1` was tested, and the “hERG current change (%, negative = inhibition) at 10uM” value was -9.39%. For `O=C1OCC2=C1C(c1ccc(F)cc1)CC(=O)N2c1ccccc1` (stereo not shown), the “hERG current change (%, negative = inhibition) at 10uM” value was -10.3%.
